Measured values: PubChem BioAssay AID493005 (National Center for Advancing Translational Sciences (NCATS), 2010)
The whole screen tested about 340,000 compounds, of which fewer than 10 were called active. Inconclusive results, whose numbers are uncertain, are shown with a selection of clear calls. The call rests on the fitted dose curve; in most records, active means well fitted inhibition curve with a large enough effect in the main read-out, with a control signal flat (not every such curve was filed as active); inconclusive means small, poorly fitted or top-dose-only effect, or effect the other way, or a change in a side signal; inactive means no such curve, though single readings can be large or run the other way. A potency beside an inconclusive call is a rough fit, not a confirmed value. “Side channel” marks fits to a control or component signal instead of the main read-out.

The compounds below were run against Tumor susceptibility gene 101 protein (Homo sapiens) (UniProt Q99816) (assay: qHTS Assay for Iinhibitors of HIV-1 Budding by Blocking the Interaction of PTAP/TSG101). Settings: Fluorescence polarization, FITC-PTAP peptide / Tsg101 binding; activity change, negative = inhibition: at 115 µM (top of the series).
UniProt Q99816, sequence (Q99816 whole entry, looked up, the tested form may be a part): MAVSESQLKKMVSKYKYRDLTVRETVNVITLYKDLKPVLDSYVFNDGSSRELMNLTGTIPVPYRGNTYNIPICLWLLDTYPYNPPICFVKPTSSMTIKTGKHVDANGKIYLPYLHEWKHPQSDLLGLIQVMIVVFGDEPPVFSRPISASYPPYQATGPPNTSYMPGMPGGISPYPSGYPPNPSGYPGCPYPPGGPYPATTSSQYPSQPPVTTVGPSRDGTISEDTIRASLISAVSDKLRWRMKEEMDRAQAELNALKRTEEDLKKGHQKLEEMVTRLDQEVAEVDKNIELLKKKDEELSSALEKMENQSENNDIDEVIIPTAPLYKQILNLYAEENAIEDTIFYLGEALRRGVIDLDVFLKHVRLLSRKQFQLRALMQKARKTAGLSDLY
Procedure, shortened: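 Steps: Tsg101 binding domain dispensed (10 uM final), compounds pinned in DMSO, FITC-labeled PTAP-motif peptide added (50 nM final); after 20 min binding at room temperature, polarization measured.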
Potency means the concentration at half of the fitted maximal effect; tags describe the fitted curve by direction and shape or compound fluorescence and quenching.
Wherever activity change, negative = inhibition is given: % of control where 0% means no effect.

Row | SMILES | activity change, negative = inhibition | Potency
1 | Cc1cc(Nc2ccc([N+](=O)[O-])cc2)c2ccccc2n1 | inactive: 0.401% | –
2 | COc1ccc(C2CC2/C(=N/OC(=O)c2cccs2)c2ccccc2)cc1 (stereo unspecified) | inactive: -1.33% | –
3 | N#C/C(=C\c1ccc(N2CCCCC2)o1)C(N)=O | – | inconclusive: 56.2 µM [fluorescent, side channel, partial curve, poor fit]
4 | COC(=O)c1cc(NC(=O)c2cccc(C(F)(F)F)c2)c(=O)oc1C | inactive: -1.75% | –
5 | COc1ccccc1Nc1nc2ccc(C)cc2cc1C#N | – | inconclusive: 56.2 µM [falling, partial curve, poor fit]
6 | CC1CCCN(c2nc3ccccc3nc2C(C#N)S(=O)(=O)c2ccccc2)C1 (stereo unspecified) | – | inconclusive: 56.2 µM [fluorescent, partial curve, poor fit]
7 | COc1cc2cc(C(=O)N3CCOCC3)cc(-c3ccc(C)cc3)c2cc1OC | inactive: -7.15% | –
8 | CCCNC(=O)c1ccccc1NC(=O)c1ccccc1N(C)S(C)(=O)=O | inactive: -0.591% | –
9 | Cc1ccc(/C(N)=N/OC(=O)CCCc2ccccc2)cc1 | inactive: 0.263% | –
10 | COc1cccc(/C=C/C(=O)Nc2cccc(C(C)=O)c2)c1OC | inactive: -0.988% | –
11 | Cn1c(=O)c2[nH]c(COc3ccccc3)nc2n(C)c1=O | – | inconclusive: 89.1 µM [fluorescent, side channel, single point]
12 | CCCCCCNC(=O)C(C#N)c1nc2ccccc2nc1N1CCOCC1 (stereo unspecified) | – | inconclusive: 50.1 µM [fluorescent, side channel, partial curve, poor fit]
13 | COc1cc(/C=C/C(O)=C/C(=O)/C=C/c2ccc(O)cc2)ccc1O | – | inconclusive: 31.6 µM [fluorescent, side channel, partial curve]
14 | Cc1ccc(-c2nc3ccccc3n2C)o1 | inactive: 1.15% | –
15 | Cc1ccc2nc3sc(C(=O)NCc4ccco4)c(N)c3cc2c1 | – | inconclusive: 50.1 µM [fluorescent, side channel, partial curve, poor fit]
16 | O=C1CCN2C=Nc3cccc4ccc1c2c34 | – | inconclusive: 50.1 µM [fluorescent, side channel, partial curve]
17 | OCCNc1nc(C2CC2)nc2c1nnn2Cc1ccccc1Cl | inactive: -4.03% | –
18 | COc1cc(C2C=C(c3cccs3)Nc3ncnn32)cc(OC)c1OC (stereo unspecified) | – | inconclusive: 56.2 µM [fluorescent, side channel, partial curve, poor fit]
19 | CNc1c2cccc(C)c2nc2c(C(=O)NCCN(C)C)cccc12 | – | inconclusive: 79.4 µM [fluorescent, side channel, partial curve]
20 | CCOC(=O)c1sc(/N=C/c2c(O)ccc3ccccc23)cc1C | – | inconclusive: 79.4 µM [fluorescent, side channel, partial curve, poor fit]
21 | CCN(CC)c1ccc2cc(-c3nc(-c4ccc(OC)cc4)cs3)c(=O)oc2c1 | – | inconclusive: 3.98 µM [fluorescent, side channel, full curve]

Row | SMILES | activity change, negative = inhibition | Potency
22 | CCCN(CCC)S(=O)(=O)c1ccc(C(=O)OCCN2C(=O)c3cccc4c(N5CCOCC5)ccc(c34)C2=O)cc1 | – | inconclusive: 50.1 µM [fluorescent, side channel, partial curve, poor fit]
23 | COc1cccc(OC)c1OCC(O)CN1CCN(c2ccccc2)CC1 (stereo unspecified) | inactive: -6.42% | –
24 | Nc1nc(=S)c2ncn([C@@H]3O[C@H](CO)[C@@H](O)[C@H]3O)c2[nH]1 | inactive: 2.83% | –
25 | Cc1ccc(NC(=O)c2sc3nc4c(c(-c5ccco5)c3c2N)CCC4)cc1 | – | inconclusive: 79.4 µM [fluorescent, side channel, partial curve]
26 | O=C1c2ccccc2NC(c2ccc(-c3ccccc3F)o2)N1O (stereo unspecified) | inactive: -5.71% | –
27 | COc1ccc(-c2cc(C(=O)c3c(N)n(C)c(=O)n(C)c3=O)c3ccccc3n2)cc1 | inactive: 0.39% | –
28 | O=C(NCc1ccco1)c1cccc2c1C(=O)c1ccc(N3CCCC3)cc1S2(=O)=O | – | inconclusive: 79.4 µM [fluorescent, side channel, partial curve, poor fit]
29 | COc1ccc(N=c2cc(-c3ccc(OC)cc3)oc3ccccc23)cc1 | inactive: -1.81% | –
30 | CN(C)c1ccc(N=Cc2nc(-c3ccccc3)oc2O)cc1 | – | inconclusive: 79.4 µM [fluorescent, partial curve]
31 | Cc1ccc(CN2C(=O)N/C(=C\c3ccc(-c4ccc(C(=O)O)cc4C)o3)C2=O)cc1 | inactive: 0.0201% | –
32 | O=S(=O)(Nc1cc2nc3ccccc3nc2n1Cc1ccccc1)c1ccc(Cl)cc1 | – | inconclusive: 50.1 µM [fluorescent, side channel, partial curve, poor fit]
33 | CN1CCCC1CCOC(C)(c1ccccc1)c1ccc(Cl)cc1 (stereo unspecified) | – | inconclusive: 39.8 µM [falling, partial curve, poor fit]
34 | CCCCNc1c2c3c(cccc3n(C)c1=O)C(=O)c1ccccc1-2 | – | inconclusive: 39.8 µM [fluorescent, side channel, partial curve]
35 | Nc1c(C(=O)O)sc2nc(-c3ccccc3)cc(-c3ccc(Cl)cc3)c12 | – | inconclusive: 89.1 µM [falling, partial curve, poor fit]
36 | CCCCOc1ccc(OCCSc2nc3ccccc3n2CC(=O)O)cc1 | inactive: -7.62% | –
37 | O=c1oc2ccc(Cl)cc2nc1/C=C(\O)c1cccs1 | – | inconclusive: 79.4 µM [fluorescent, side channel, partial curve, poor fit]
38 | Cc1sc2nc(CSc3nc4ccccc4c(=O)n3CCCN3CCOCC3)[nH]c(=O)c2c1C | – | inconclusive: 50.1 µM [fluorescent, side channel, partial curve, poor fit]
39 | CCN(CC)c1ccc(/C=c2\sc3nc4ccccc4n3c2=O)c(O)c1 | – | inconclusive: 56.2 µM [fluorescent, partial curve, poor fit]
40 | NC(=O)c1c(NC(=O)C2COc3ccccc3O2)sc2c1CCN(Cc1ccccc1)C2 (stereo unspecified) | – | inconclusive: 79.4 µM [fluorescent, side channel, partial curve, poor fit]
41 | Cc1ccc(S(=O)(=O)Nc2nc3ccccc3nc2Nc2cccc(S(=O)(=O)N3CCCC3)c2)cc1 | – | inconclusive: 89.1 µM [fluorescent, side channel, partial curve, poor fit]
